This note sets out measurements from PubChem BioAssay AID1508624 (National Center for Advancing Translational Sciences (NCATS), 2021).

The whole screen tested about 48,000 compounds, of which about 120 (0.25%) were called active. Roughly 4% stayed inconclusive and do not appear here. The call rests on the fitted dose curve; in most records, active means well fitted activation curve with a large enough effect; inconclusive means small, poorly fitted or top-dose-only effect, or another doubt; inactive means no such curve, though single readings can be large or run the other way. The list shows a part of the results.

A short description of the experiment: Primary qHTS for Identification of Small Molecule Activators of Huntingtin-Antisense Promoter Activity. Further: nearly all actives have a fitted effect of over 55% in size. As to conditions: HEK293 HTT-AS promoter firefly luciferase reporter, 24 h; series mostly up to 57.5 µM; activity change, positive = activation: at the top concentration. A digest of the protocol:
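HEK293 cells carrying firefly luciferase reporters were seeded at 2,500 per well in Opti-MEM and cultured for 24 h. They were then treated with compounds at up to 57.5 uM final for 24 h at 37 degrees C before Dual-Glo luminescence readout.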
In general terms: Quantitative high-throughput screening tests each substance at several concentrations.
Consider `CCOC(=O)c1c(NC(=O)Cc2coc3ccc(CC)cc23)sc2c1CCC2`, for which the “activity change, positive = activation” value was inactive: -19.1%.
In the case of `Nc1nc2[nH]cc(CCc3ccc(C(=O)N[C@@H](CCC(=O)O)C(=O)O)cc3)c2c(=O)[nH]1` it was inactive: -9.59%; in that of `CC(C)C(=O)Nc1nnc(S(=O)(=O)N2CCc3ccccc32)s1`, inactive: -19.4%; in that of `Cc1cccc(N2CCN(c3ccc4cc(S(=O)(=O)N5CCC(C)CC5)ccc4n3)CC2)c1C`, inactive: 2.34%.
In the case of `COc1ccccc1NC(=O)N1CCN(c2ccc3nnc(-c4ccc(F)cc4)n3n2)CC1` it was inactive: -23.9%.
In the case of `CCOc1ccc(NC(=O)Cn2nc(Cc3cccnc3)c3ccccc3c2=O)cc1` it was inactive: -7.27%; in that of `Cc1nc2c3ccccc3nc(NNC(=O)CCC(=O)N3CCN(c4ccc(F)cc4)CC3)n2n1`, inactive: -15.9%; in that of `O=C(Nc1ccc(OC(F)(F)F)cc1)c1cc(-c2ccc(Cl)cc2)on1`, inactive: 0.953%.
Take `Cc1cccc(NC(=O)CSc2cn(CC(=O)N3CCOCC3)c3ccccc23)c1C`: the “activity change, positive = activation” value was inactive: -0.692%.
Take `CCSc1nc(-c2ccc(OC)cc2)nc2c1Cc1c(CO)cnc(C)c1O2`: the “activity change, positive = activation” value is inactive: -11.1%.
For `Cc1ccc2nc(COc3ccccc3NC(=O)Nc3ccc(F)c(Cl)c3)cc(=O)n2c1`, the “activity change, positive = activation” value is inactive: 7.13%.
In the case of `CC(=O)N1CCCc2ccc(NC(=O)c3ccc(OC(C)C)cc3)cc21` it was inactive: -40.6%; in that of `Cc1ccc(-n2c3nc(=O)n(C)c(=O)c-3cc3ccccc32)c(C)c1`, inactive: -15.6%.
Turning to `CCC(=O)N1CCc2cc(Br)cc(S(=O)(=O)N3CCCC(C(=O)NCc4ccc(C)cc4)C3)c21` (configuration not stated), the “activity change, positive = activation” value was inactive: -22.7%.
In the case of `COc1cccc2cc(-c3nc4sc5c(c4c(=O)[nH]3)CCC(C(C)(C)C)C5)c(=O)oc12` (configuration not stated) it was inactive: -10.8%.
In the case of `COc1ccc(S(=O)(=O)c2c(Nc3cccc(Cl)c3)sc(C(=O)c3ccccc3)c2N)cc1` it was inactive: -24.2%; in that of `COc1ccc(/C=C/c2nc(C#N)c(N3CCCCC3)o2)cc1OC`, inactive: -12.3%; in that of `CCc1ccc(NC(=O)Cn2ncn3c(cc4ccccc43)c2=O)cc1`, inactive: -4.44%.
Next, `Cc1ccc2c(=O)cc(C(=O)Nc3c(C)cccc3C)oc2c1`: inactive: 4.17% [at 11.5 µM, percent change from vehicle, -100% = no light]; `Cc1cc2c(cc1S(=O)(=O)NCc1ccc(F)cc1)OCCN2C`: inactive: -4.21%.
For the molecule `CCCCN(Cc1cc2cc(C)ccc2[nH]c1=O)C(=O)c1cccc(Cl)c1`, the “activity change, positive = activation” value was inactive: -27.3%.
Next, `Cc1ccc(C(=O)c2oc3ccccc3c2NC(=O)COc2ccc(Cl)c(C)c2)cc1`: inactive: 4.21%; `COc1cccc(NC(=O)Cn2c(=O)oc3cc(S(=O)(=O)N4CCCCC4)ccc32)c1`: inactive: -40.4%; `COc1cc(C2CC(=O)Nc3cc4c(cc32)OCO4)cc(OC)c1O` (configuration not stated): inactive: -9.67%.
On to `Cc1c(C)n(Cc2ccc(Cl)cc2)c2ccc(C(=O)N3CCN(c4ccccc4F)CC3)cc12`, for which the “activity change, positive = activation” value is inactive: -19.7%.
For `Cc1cccc(-c2nn(C(=S)Nc3ccccc3)cc2-c2ccnc3ccccc23)n1`, the “activity change, positive = activation” value is inactive: -24.8%.
Next, `COc1ccc(OC)c(CCNC(=O)c2nc(-c3ccc(Cl)cc3)n3c2CCCCC3)c1`: inactive: -28.4%; `COCCc1ccc(OCC(O)CNC(C)C)cc1` (configuration not stated): inactive: -3.47%; `CCc1cccc(CC)c1NC(=O)CN(C)S(=O)(=O)c1ccc2c(c1)n(C)c(=O)c(=O)n2C`: inactive: -9.78%.
As to `CSc1nn(Cc2ccc(F)cc2)c(N(C(C)=O)C(C)=O)c1S(=O)(=O)c1ccccc1`, the “activity change, positive = activation” value was inactive: -33.9%.
In the case of `Cc1ccc(C(=O)CSc2nc(C)cc(C)c2C(=O)Nc2cccc(C)c2)cc1` it was inactive: -14.2%; in that of `COc1cccc(CNC(=O)C2CCCN(c3nnc(-n4c(C)ccc4C)s3)C2)c1OC` (configuration not stated), inactive: -5.75%; in that of `O=C(NCCc1ccc(Cl)cc1)C1CCN(S(=O)(=O)c2ccc3[nH]ccc3c2)CC1`, inactive: -24.1%.
In the case of `COc1ccc(CCNC(=O)C(=O)NCC(c2cccs2)S(=O)(=O)c2ccc(F)cc2)cc1` (configuration not stated) it was inactive: -37.5%; in that of `COc1ccc(-c2noc(CNC(=O)COc3cccc(C)c3C)n2)cc1`, inactive: -5.55%; in that of `O=C(COCc1cc(-c2ccc3c(c2)OCO3)on1)Nc1cc(Cl)ccc1O`, inactive: 4.71%.
For `CCOC(=O)c1c(C)oc2nc(C)nc(NCCCN3CCN(c4cc(C)ccc4C)CC3)c12`, the “activity change, positive = activation” value is inactive: -1.83%.
Next, `CC(C)c1ccc(Nc2c(-c3ccccn3)nc3ccccn23)cc1`: inactive: -66.9%; `COc1ccc(-c2nc(CSCC(=O)NCc3ccccc3Cl)c(C)o2)cc1OC`: inactive: -32.7%; `CNC(=O)C1CCC(Cn2c(=O)c3sccc3n(CC(=O)N3CCC(C)CC3)c2=O)CC1` (configuration not stated): inactive: -10.5%.
In the case of `Cc1ccc(-n2ncc(C(=O)NCc3ccco3)c2C2CCN(C(=O)OC(C)(C)C)CC2)cc1` it was inactive: -24.2%.
In the case of `Cc1ccc2nc(Cl)c3cc(C(=O)N4CCCCC4)sc3c2c1` it was inactive: 2.81%.
Turning to `Cn1c(=O)c2c(-c3ccc(Cl)cc3)n(CCc3ccccc3)cc2n(C)c1=O`, the “activity change, positive = activation” value was inactive: -20.6%.
With `COC(=O)c1cc(S(=O)(=O)NCC2CCN(Cc3cccc(F)c3)CC2)cn1C`, the “activity change, positive = activation” value is inactive: -13.3%.
In the case of `Cc1cc(C)c(Cn2c(=O)n(CCCC(=O)NCc3ccc4c(c3)OCO4)c(=O)c3sccc32)c(C)c1` it was inactive: -11.4%; in that of `OCc1ccccn1`, inactive: -10.3%; in that of `CN(C(=O)c1c(O)c2ccccc2n(C)c1=O)c1ccccc1`, inactive: -5.82%.
